From the supplement of paper PMC7125110
± gives the standard error. Variants at the floor of the assay are shown more often than the library holds them.

B1: glmS ribozyme (parent)
chain: AUAAAAGCGCCAGAACUACAGAAAUGUAGUUGACGAGGAGGAGGUUUAUCGAAUUUUCGGCGGAUGCCUCCAAA

What was measured:
Details in all cases: with glucosamine-6-phosphate
glucosamine-6-phosphate [1] = variants of: B1; experiment: self-cleavage kobs at 40 uM GlcN6P; higher = faster cleavage; RNA array
How it was run: (§1)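 In situ transcription by E. coli RNA polymerase produced barcoded ribozyme variants on sequenced MiSeq chips, and a hybridised Cy3 probe tracked them at 37 °C. Glucosamine-6-phosphate was flowed in at 40 μM to 10 mM in HEPES/KCl/Mg(OAc)2 buffer. kcat and KM were taken from weighted Michaelis–Menten fits of kobs values from exponential decay fits.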

glucosamine-6-phosphate [2] = variants of: B1; experiment: self-cleavage kobs at 640 uM GlcN6P; higher = faster cleavage; RNA array
How it was run: as §1

glucosamine-6-phosphate [3] = variants of: B1; experiment: self-cleavage kobs at 160 uM GlcN6P; higher = faster cleavage; RNA array
How it was run: as §1

glucosamine-6-phosphate [4] = variants of: B1; experiment: self-cleavage kobs at 2500 uM GlcN6P; higher = faster cleavage; RNA array
How it was run: as §1

glucosamine-6-phosphate [5] = variants of: B1; experiment: self-cleavage kobs at 10000 uM GlcN6P; higher = faster cleavage; RNA array
How it was run: as §1

| Variant | self-cleavage kobs at 40 uM GlcN6P (glucosamine-6-phosphate [1]) [s⁻¹] | self-cleavage kobs at 640 uM GlcN6P (glucosamine-6-phosphate [2]) [s⁻¹] | self-cleavage kobs at 160 uM GlcN6P (glucosamine-6-phosphate [3]) [s⁻¹] | self-cleavage kobs at 2500 uM GlcN6P (glucosamine-6-phosphate [4]) [s⁻¹] | self-cleavage kobs at 10000 uM GlcN6P (glucosamine-6-phosphate [5]) [s⁻¹] |
| --- | --- | --- | --- | --- | --- |
| A12C U46A A64C | < 1e-05 |  |  |  |  |
| A12C U65A | 3.82e-05 ± 8.1e-06 | 0.000345 ± 6.5e-05 | 0.000134 ± 3.3e-05 | 0.000932 ± 0.00017 | 0.00173 ± 0.00015 |
| A12G A14G U30A U46C U49C U57C | < 1e-05 |  |  | < 1e-05 | < 1e-05 |
| A12G A53G G60U | < 1e-05 |  |  | < 1e-05 | < 1e-05 |
| A12G C34G G41C A53G | < 1e-05 |  |  |  |  |
| A12G C58U | < 1e-05 |  |  | 1.67e-05 ± 7.9e-06 | 6.35e-05 ± 8.1e-06 |
| A12G C61G | < 1e-05 |  |  |  | < 1e-05 |
| A12G G13U G40A | < 1e-05 |  |  |  |  |
| A12G G32C G37U C71G | < 1e-05 |  |  |  |  |
| A12G G38A G66U | < 1e-05 | < 1e-05 | < 1e-05 |  | < 1e-05 |
| A12G G41C A53C | < 1e-05 |  |  |  |  |
| A12G G43A | < 1e-05 | < 1e-05 | < 1e-05 |  |  |
| A12G G44C C67G | < 1e-05 |  |  |  | 0.000225 ± 4.3e-05 |
| A12G G62U | < 1e-05 | < 1e-05 |  |  |  |
| A12G U49A | < 1e-05 | < 1e-05 |  | < 1e-05 | < 1e-05 |
| A12G U49C | < 1e-05 | < 1e-05 |  |  | < 1e-05 |
| A12G U56C C67G | < 1e-05 | < 1e-05 |  | < 1e-05 |  |
| A12U A33G | < 1e-05 |  | < 1e-05 |  | < 1e-05 |
| A12U A36U | < 1e-05 |  |  |  |  |
| A12U A36U C50U U65G | < 1e-05 |  |  |  | < 1e-05 |
| A12U A53G | 0.00255 ± 0.00025 | 0.0163 ± 0.0025 | 0.00496 ± 0.00086 |  | 0.125 ± 0.023 |
| A12U C16A C34A G38U G51U | < 1e-05 |  |  | < 1e-05 | < 1e-05 |
| A12U C50G G51C | < 1e-05 |  |  |  |  |
| A12U G13C G35U A48U | < 1e-05 |  |  |  |  |
| A12U G32C A39G U49G C50A | < 1e-05 |  |  |  | < 1e-05 |
| A12U G32U C50G | 7.78e-05 ± 3.4e-05 |  |  |  |  |
